{"source": "PubChem BioAssay AID1963320", "about": "(National Center for Advancing Translational Sciences (NCATS), 2024)", "note": "The whole screen tested about 1,300 compounds, of which about 560 (43%) were called active. So high a share suggests a set chosen from earlier hits. Inconclusive results, whose numbers are uncertain, are shown with a selection of clear calls. Calls follow the shape of the dose curve; as a rule, active = well fitted inhibition curve with a large enough effect; inconclusive = small, poorly fitted or top-dose-only effect; inactive = flat fitted curve, though single readings scatter. Where the call is inconclusive, the potency comes from a doubtful curve fit. % is scaled to controls: 0 for no effect and ±100 for the full control effect; potency is read from the fitted curve at half-maximal effect; tags tell the direction and shape of the fitted curve. Also: nearly all actives have a fitted effect of over 70% in size.", "data": [{"target": "Luciferin 4-monooxygenase (Photinus pyralis) (UniProt P08659)", "sequence (P08659 whole entry, looked up)": "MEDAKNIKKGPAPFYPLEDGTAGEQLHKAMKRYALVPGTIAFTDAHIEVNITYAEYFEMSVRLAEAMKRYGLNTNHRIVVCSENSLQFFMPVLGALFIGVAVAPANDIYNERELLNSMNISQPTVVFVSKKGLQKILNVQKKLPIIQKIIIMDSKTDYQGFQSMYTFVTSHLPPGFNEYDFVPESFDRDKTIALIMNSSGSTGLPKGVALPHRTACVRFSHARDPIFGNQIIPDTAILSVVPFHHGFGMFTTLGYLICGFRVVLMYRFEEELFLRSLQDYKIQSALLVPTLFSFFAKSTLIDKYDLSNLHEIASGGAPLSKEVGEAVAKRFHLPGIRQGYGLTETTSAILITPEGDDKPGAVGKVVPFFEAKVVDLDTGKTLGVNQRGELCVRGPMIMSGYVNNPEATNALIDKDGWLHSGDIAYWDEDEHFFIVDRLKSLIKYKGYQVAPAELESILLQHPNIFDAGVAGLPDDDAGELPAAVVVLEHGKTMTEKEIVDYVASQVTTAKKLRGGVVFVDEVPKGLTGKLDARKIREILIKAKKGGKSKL", "assay": "Firefly luciferase (FLuc-C-HiBiT) enzymatic inhibition screen - Functional assay", "conditions": "purified FLuc-C-HiBiT enzyme, luciferin luminescence; series mostly up to 32.7 µM; activity change, negative = inhibition: at the top concentration", "method_in_brief": "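With 10 uM ATP present, 10 nM FLuc-C-HiBiT enzyme sits with compounds for >30 min at room temperature away from light. Substrate D-luciferin is added to 10 uM (KM), and emitted light is captured after 5-10 min by CCD camera with 10 s exposure.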", "values": [{"smiles": "C[S+](=O)([O-])CCn1ncc2cc(OCc3cccc(-c4cccc(O)c4)c3)ccc21", "Potency": "inconclusive: 16.1 µM [inhibitor, partial curve]"}, {"smiles": "COc1ccc(-c2noc(Nc3ccccc3)n2)cc1", "Potency": "active: 2.21 µM"}, {"smiles": "Cc1cccc(N2CCN(C(=O)CSCc3ccc(F)cc3)CC2)c1C", "activity change, negative = inhibition": "inactive: -7.67%"}, {"smiles": "CCc1ccc(NC(=O)C2CCN(C(=O)c3ncn4c3COC(c3ccccc3)C4)CC2)cc1", "note": "(stereo not drawn)", "Potency": "active: 3.94 µM"}, {"smiles": "Cc1ccc(-n2nc(C)c([C@@H]3C=C[C@@H](NC(=O)COCC(=O)O)C3)c2C)cc1Cl", "activity change, negative = inhibition": "inactive: -1.45% [at 49.3 µM]"}, {"smiles": "COc1ccc(-c2cc3c(=O)n(CCNC(=O)c4cccc(N(C)C)c4)ccn3n2)cc1", "Potency": "inconclusive: 3.51 µM [inhibitor, full curve]"}, {"smiles": "CSc1ccc(/C=C/c2nc3ccccc3n2S(=O)(=O)c2cccc(Cl)c2)cc1", "Potency": "active: 0.556 µM"}, {"smiles": "Cc1ccc(C2Cn3nnc(C(=O)N4CCC(C(=O)Nc5ccc(F)cc5)CC4)c3CO2)cc1", "note": "(stereo not drawn)", "Potency": "inconclusive: 11.1 µM [inhibitor, partial curve]"}, {"smiles": "Cc1ccc(NC(=O)Nc2ccc(C)n(CC(=O)NCCN3CCCC3)c2=O)cc1", "Potency": "inconclusive: 11.1 µM [inhibitor, partial curve]"}, {"smiles": "Cn1cc(-c2cccc(COc3ccc4c(cnn4CC[S+](C)(=O)[O-])c3)c2)cn1", "Potency": "inconclusive: 18 µM [inhibitor, partial curve]"}, {"smiles": "O=C(NCc1ccc(F)c(Cl)c1)C1CCN(C(=O)c2ncn3c2COC(c2ccccc2)C3)CC1", "note": "(stereo not drawn)", "Potency": "active: 3.51 µM"}, {"smiles": "CCn1cc(-c2ccc(F)cc2)cc1C(=O)O", "activity change, negative = inhibition": "inactive: -7.9%"}, {"smiles": "Cc1ccc(-c2cc3c(=O)n(CCNC(=O)c4nn(C)c5ccccc45)ccn3n2)c(C)c1", "Potency": "active: 1.57 µM"}, {"smiles": "Cc1ccc(N2C(=O)c3n[nH]c(C)c3C2c2ccc(Cl)cc2)cc1", "note": "(stereo not drawn)", "Potency": "inconclusive: 12.4 µM [inhibitor, partial curve]"}, {"smiles": "CN(CCO)c1ccc(-c2nc(CCCc3ccccc3)no2)cn1", "Potency": "inconclusive: 12.4 µM [inhibitor, partial curve]"}, {"smiles": "CC1CCc2nc3ncn(Cc4ccc(Cl)cc4)c(=O)c3cc2C1", "note": "(stereo not drawn)", "activity change, negative = inhibition": "inactive: -8.48%"}, {"smiles": "CCOC(=O)c1cccc(Nc2nc(-c3ccccc3)no2)c1", "Potency": "inconclusive: 6.24 µM [inhibitor, partial curve]"}, {"smiles": "CCn1c(=O)c(C(=O)Nc2ccc(C(C)=O)cc2)nc2ccccc21", "Potency": "inconclusive: 12.4 µM [inhibitor, partial curve]"}, {"smiles": "CSc1cccc(NC(=O)Nc2cccc(-c3ccc(N4CCOCC4)nn3)c2)c1", "Potency": "active: 1.57 µM"}, {"smiles": "Cc1ccc(CNC(=O)c2ccc3c(c2)CN(Cc2cnn(C)c2C)CCO3)cc1", "activity change, negative = inhibition": "inactive: -6.61%"}, {"smiles": "CCC(=O)NCCC1CCN(C(=O)Nc2ccc(C)c(F)c2)CC1", "Potency": "inconclusive: 11.1 µM [inhibitor, partial curve]"}, {"smiles": "COc1cccc(C(=O)Nc2ccc(-c3nc4ccccc4s3)cc2Cl)c1", "activity change, negative = inhibition": "inactive: -1.06%"}, {"smiles": "Cc1noc(C)c1CN1CCc2nc(C(=O)Nc3ccccc3)oc2CC1", "activity change, negative = inhibition": "inactive: -15.4% [at 49.3 µM]"}, {"smiles": "COc1ccc(-c2ncc3c(n2)OCCN(C)C3=O)cc1F", "Potency": "active: 18 µM"}, {"smiles": "COc1cccc(F)c1-c1ccc(COc2ccc3c(cnn3CCC(=O)O)c2)cc1", "Potency": "inconclusive: 20.2 µM [inhibitor, partial curve]"}, {"smiles": "CN1CCOc2nc(-c3ccc(Oc4ccccc4)cc3)ncc2C1=O", "Potency": "inconclusive: 16.1 µM [inhibitor, partial curve]"}, {"smiles": "COc1ccc(OCC(=O)Nc2ccc(O)c(-c3nc4ccccc4s3)c2)cc1", "activity change, negative = inhibition": "inactive: -14.4%"}, {"smiles": "O=C(Nc1ccccc1)N1CC(Oc2ccc(-c3nc(-c4ccccc4)no3)cc2)C1", "Potency": "inconclusive: 11.1 µM [inhibitor, partial curve]"}, {"smiles": "CC1CCCN(c2ncnc3c2cnn3-c2ccccc2)C1", "note": "(stereo not drawn)", "Potency": "active: 0.442 µM"}, {"smiles": "COc1ccc(NC(=O)/C(C#N)=C/c2ccc(C)o2)cc1", "Potency": "inconclusive: 6.24 µM [inhibitor, partial curve]"}, {"smiles": "CN1CCN(c2ccc(-c3cccc(N)c3)nn2)CC1", "Potency": "active: 6.24 µM"}, {"smiles": "CCn1cc(-c2ccc(OC)cc2)cc1C(=O)O", "Potency": "inconclusive: 14 µM [inhibitor, partial curve, poor fit]"}, {"smiles": "c1cncc(Nc2cc3c(cn2)CN(Cc2cnc[nH]2)CCN3)c1", "activity change, negative = inhibition": "inactive: -8.38%"}, {"smiles": "C=CCCC(=O)N1CCOc2c(O)cc(-c3nc4ccccc4s3)cc2C1", "activity change, negative = inhibition": "inactive: -16.7%"}, {"smiles": "CN1c2cc(C(=O)Nc3ccc4c(c3)OCCO4)ccc2C(=O)N2CCCCC21", "note": "(stereo not drawn)", "Potency": "active: 9.89 µM"}, {"smiles": "CCOC(=O)c1cccc(NC(=O)CCc2c(C)nc3cc(-c4ccc(Cl)cc4)nn3c2C)c1", "Potency": "active: 8.81 µM"}, {"smiles": "COc1ccc(C(=O)NCC2Cc3cc(C)cc(-c4nc5ccccc5s4)c3O2)c(OC)c1OC", "note": "(stereo not drawn)", "activity change, negative = inhibition": "inactive: 0.667%"}, {"smiles": "Cn1ccnc1C(O)c1cc2n(n1)CCN(c1ncnc3nc[nH]c13)C2", "note": "(stereo not drawn)", "activity change, negative = inhibition": "inactive: 2.12%"}, {"smiles": "Nc1ccc(-c2nc3ccccc3s2)cc1", "Potency": "active: 1.76 µM"}, {"smiles": "O=C1c2cnc(-c3ccc(F)cc3)nc2OCCN1CC1CC1", "Potency": "active: 14.3 µM"}, {"smiles": "CCc1ccc(Nc2nc(-c3ccccc3F)no2)cc1", "Potency": "active: 6.24 µM"}, {"smiles": "CCCCNC(=O)C1CCN(C(=O)c2ncn3c2COC(c2ccccc2)C3)CC1", "note": "(stereo not drawn)", "Potency": "inconclusive: 6.24 µM [inhibitor, partial curve]"}, {"smiles": "Cc1ccc(NC(=O)C2CCN(C(=O)c3ncn4c3COC(c3ccc(F)cc3)C4)CC2)c(F)c1", "note": "(stereo not drawn)", "Potency": "inconclusive: 11.1 µM [inhibitor, partial curve, poor fit]"}, {"smiles": "COc1ccccc1NC(=O)CN1C(=O)CC(c2ccc(C)c(C)c2)=Nc2ccccc21", "Potency": "inconclusive: 12.4 µM [inhibitor, partial curve]"}, {"smiles": "CCOC(=O)c1ccc(NC(=O)c2csc3c2CCCC3)cc1", "Potency": "inconclusive: 15.7 µM [inhibitor, partial curve, poor fit]"}, {"smiles": "CN1CCc2nc3sc(C(=O)Nc4cccc(C#N)c4)c(N)c3cc2C1", "activity change, negative = inhibition": "inactive: -12.1%"}, {"smiles": "Cc1nnc(CN(C)c2ccc(-c3nc(-c4cccc(Cl)c4)no3)cn2)o1", "Potency": "active: 4.95 µM"}, {"smiles": "Cc1cnc(CCNC(=O)Nc2ccc3c(c2)OCCO3)n1Cc1ccc(F)cc1", "Potency": "inconclusive: 12.4 µM [inhibitor, partial curve]"}, {"smiles": "COc1ccc(-c2cc3c(cn2)CN(Cc2cccnc2)CCN3)cc1F", "Potency": "active: 14.3 µM"}, {"smiles": "COc1ccc(-c2nc3ccc(NS(C)(=O)=O)cc3o2)cc1", "Potency": "inconclusive: 5.56 µM [inhibitor, partial curve]"}, {"smiles": "Cc1ccccc1-c1cccc(COc2cnc3c(ccn3CC(=O)O)c2)c1", "Potency": "inconclusive: 18 µM [inhibitor, partial curve]"}, {"smiles": "Cc1ccc2nc([C@H]3CCN(Cc4cccs4)C3)[nH]c2c1", "Potency": "inconclusive: 20.2 µM [inhibitor, partial curve]"}, {"smiles": "Cc1ccc(C2Cn3nnc(C(=O)N4CCC(C(=O)NCc5ccncc5)CC4)c3CO2)cc1", "note": "(stereo not drawn)", "Potency": "inconclusive: 11.1 µM [inhibitor, partial curve, poor fit]"}, {"smiles": "CC(=O)Nc1cccc(-c2cc3c(cn2)CN(Cc2ccccc2)CCN3)c1", "Potency": "inconclusive: 16.1 µM [inhibitor, partial curve]"}, {"smiles": "CCCN1C(=O)c2ccc(-c3nc4ccccc4s3)cc2C1=O", "Potency": "active: 1.97 µM"}, {"smiles": "C#CCn1c(/C=C/c2ccc(Cl)cc2)nc2ccccc21", "Potency": "active: 0.624 µM"}, {"smiles": "Cc1ccc(-c2cc(C(=O)N3CCC(Cc4nncn4CC4CC4)CC3)c3ccccc3n2)cc1C", "Potency": "active: 1.97 µM"}, {"smiles": "O=C(c1cc(-c2ccccc2O)on1)N1CCCCC1", "Potency": "inconclusive: 9.89 µM [inhibitor, partial curve]"}, {"smiles": "COc1ccc(F)cc1-c1ccc(COc2ccc3c(cnn3CCC(=O)O)c2)cc1", "Potency": "inconclusive: 18 µM [inhibitor, partial curve]"}, {"smiles": "Cc1ccc(C2Cn3nnc(C(=O)N4CCC(C(=O)NCCc5cccs5)CC4)c3CO2)cc1", "note": "(stereo not drawn)", "Potency": "inconclusive: 9.89 µM [inhibitor, partial curve]"}, {"smiles": "Cc1ccc(NC(=O)Nc2ccc(C)n(CC(=O)N3CCC(C)CC3)c2=O)cc1", "Potency": "active: 3.94 µM"}, {"smiles": "CCc1ccc2oc(-c3ccc(C)c(NC(=O)c4ccc(C#N)cc4F)c3)nc2c1", "activity change, negative = inhibition": "inactive: -14.8%"}, {"smiles": "c1ccc(-c2ccnc(NCCc3c[nH]c4ccccc34)n2)nc1", "Potency": "inconclusive: 19.7 µM [inhibitor, partial curve, poor fit]"}, {"smiles": "O=C1CC2(CCN(CC3CC3)CC2)Oc2cc(Cl)ccc21", "Potency": "inconclusive: 18 µM [inhibitor, partial curve]"}, {"smiles": "COc1ccc(-c2cc(N3CCCC(NC(=O)c4cc(OC)cc(OC)c4)C3)n[nH]2)cc1", "note": "(stereo not drawn)", "Potency": "inconclusive: 9.89 µM [inhibitor, partial curve]"}, {"smiles": "Cc1ccc(-c2ncc3c(n2)OCCN(Cc2ccc(F)cc2F)C3=O)cc1", "activity change, negative = inhibition": "inactive: -3.97% [at 49.3 µM]"}, {"smiles": "COc1ccc(CN2C[C@H](O)C[C@H]2c2nc(-c3ccc(OC)cc3)no2)cc1", "Potency": "inconclusive: 14.3 µM [inhibitor, partial curve]"}, {"smiles": "Cc1ccc(NC(=O)Nc2ccc(C)n(CC(=O)NCC(C)C)c2=O)cc1", "Potency": "active: 1.11 µM"}, {"smiles": "Cc1cccc(C(=O)Nc2ccc(-c3nc4ccccc4s3)cc2Cl)c1", "activity change, negative = inhibition": "inactive: -1.33%"}, {"smiles": "Cc1nn(-c2ccc(C(C)C)cc2)c(C)c1[C@@H]1C=C[C@@H](NC(=O)CC2(CC(=O)O)CCCC2)C1", "activity change, negative = inhibition": "inactive: -6.39%"}, {"smiles": "CN1CC(=O)N(C2CCCC2)Cc2c1ncnc2N1CCOCC1", "activity change, negative = inhibition": "inactive: 2.39% [at 49.3 µM]"}, {"smiles": "O=C1c2cnc(-c3ccsc3)nc2OCCN1c1ccccc1", "Potency": "inconclusive: 18 µM [inhibitor, partial curve]"}, {"smiles": "COc1cccc(CNc2nc3ccccc3c3nc(-c4cccc(C)c4)nn23)c1", "Potency": "inconclusive: 7.85 µM [inhibitor, partial curve, poor fit]"}]}]}
